Reference: PubChem BioAssay AID1745853 (National Center for Advancing Translational Sciences (NCATS), 2022)
This is one part of the list. These are further read-outs of the screen, such as a control signal, another cell line or another target. No call is given for them.

Assays:
Assay in all cases: Primary Screen for Target Class Profiling of Small Molecule Inhibitors of Methyltransferases
[1] = molecular target: Glycine N-methyltransferase (Homo sapiens) (UniProt Q14749); details: purified enzyme, MTase-Glo SAH luminescence; measured here: GNMT inhibition; at 40 µM; stronger effect = lower value
How it was run: (§1)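 Each enzyme was reacted with SAM and its substrate, with compounds tested once at 40 uM; SAH formed was read by MTase-Glo luminescence.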

[2] = molecular target: Guanidinoacetate N-methyltransferase (Homo sapiens) (UniProt Q14353); details: purified enzyme, MTase-Glo SAH luminescence; measured here: GAMT inhibition; at 40 µM; stronger effect = lower value
How it was run: as §1

[3] = molecular target: Histamine N-methyltransferase (Homo sapiens) (UniProt P50135); details: purified enzyme, MTase-Glo SAH luminescence; measured here: HNMT inhibition; at 40 µM; stronger effect = lower value
How it was run: as §1

[4] = molecular target: Nicotinamide N-methyltransferase (Homo sapiens) (UniProt P40261); details: purified enzyme, MTase-Glo SAH luminescence; measured here: NNMT inhibition; at 40 µM; stronger effect = lower value
How it was run: as §1

[5] = molecular target: Phenylethanolamine N-methyltransferase (Homo sapiens) (UniProt P11086); details: purified enzyme, MTase-Glo SAH luminescence; measured here: PNMT inhibition; at 40 µM; stronger effect = lower value
How it was run: as §1
% is set by controls: 0 for no effect and ±100 for the full control effect.

Row | Structure (SMILES) | activity change, negative = inhibition [1] [%] | activity change, negative = inhibition [2] [%] | activity change, negative = inhibition [3] [%] | activity change, negative = inhibition [4] [%] | activity change, negative = inhibition [5] [%]
1 | CCn1cc(C(=O)N2CCc3cc(S(=O)(=O)NCC4CCCO4)ccc3C2)cn1 (configuration not stated) | -5.37 | 1.95 | -0.105 | 0.049 | 11.9
2 | Cc1ccc(NC(=O)c2ccc(CN3CC[C@H](N(C)C)C3)c(C(F)(F)F)c2)cc1Nc1nccc(-c2cncnc2)n1 | -8.39 |  | -26.3 |  | 
3 | COc1ccc(Cn2c(C3CCN(C(=O)C4(c5ccccc5)CC4)CC3)n[nH]c2=O)cc1 | -3.65 | -3.39 | -1.75 | -2.13 | 1.97
4 | CC(C)CCN1CC(C(=O)NCCc2ccncc2)C2(CCOCC2)C1 (configuration not stated) | -9.73 | -16.7 | -5.1 | -14.8 | -10.6
5 | Cc1ccccc1Cn1nc2n(C)c(=O)c3ccc(C(=O)NC4CCCC4)cc3n2c1=O | -1.3 | 1.82 | -1.44 | -7.76 | -3.98
6 | Cc1ccc(NC(=O)N2CCn3cccc3C2C(C)C)c(Cl)c1 (configuration not stated) | 5.06 | 0 | -1.4 | 0.103 | 3.3
7 | Cc1ccc(F)c(C(=O)NC(C)c2cnn(-c3ccccc3)c2C)c1Cl (configuration not stated) | 0.148 | -4.71 | -3.37 | -9.53 | -7.38
8 | CNC(=O)c1cc(C2CC2)nc2onc(C3CCN([S+](=O)([O-])c4ccccc4)C3)c12 (configuration not stated) | -2.25 | -1.18 | 1.04 | -3.54 | -20.2
9 | CC(=O)NC[C@H]1CN(c2ccc(N3CCSCC3)c(F)c2)C(=O)O1 | -5.04 | -5.32 | 6.75 | -18.5 | 0.864
10 | Cc1ccc(CNC(=O)C2(C)Cn3cnc(C(=O)NCCc4ccccc4)c3C(=O)N2C2CC2)cc1 (configuration not stated) | -0.53 | 1.73 | -0.135 | -7.13 | -4.21
11 | CC(C)OCCCN1C(=O)c2cc3sccc3n2CC1(C)C(=O)NC1CCCCCCC1 (configuration not stated) | -3.96 | 4.87 | -5.73 | -3.13 | -1.59
12 | CC(C)CCN1C(=O)c2cc3sccc3n2CC1(C)C(=O)NC1CCCCC1C (configuration not stated) | 1.51 | 0.161 | 2.41 | 2.78 | -1.14
13 | CCC[C@@H]1CN(C(=O)CNS(=O)(=O)c2cccs2)C[C@H]1NC(C)=O | -4.48 | -7.2 | -2.41 | -4.36 | -6.35
14 | O=S(=O)(NCC1CC1)c1ccc(Nc2nccc(N3CCCc4cc(O)ccc43)n2)cc1 | -13.3 | -13.5 | -42.8 | -41.8 | -20.9
15 | COc1ccc(-c2cc3n(n2)CC(C)(C(=O)NCc2ccccc2OC)N(CCc2ccco2)C3=O)cc1 (configuration not stated) | 4.11 | 3.44 | 8.89 | 12.3 | 2.26
